Hit rate of the full screen: of about 370,000 compounds, about 150 (0.041%) were called active. The inconclusive results got no clear call from the source; some entries with a clear call stand among them for comparison. Calls come from the whole dose curve; as a rule, active = well fitted inhibition curve with a large enough effect; inconclusive = small, poorly fitted or top-dose-only effect; inactive = flat fitted curve, though single readings scatter. No potency is given beside an inconclusive call; the fits are too rough.
Each molecule was assayed against Beta-lactamase (Escherichia coli (strain K12)) (UniProt P00811) (assay: qHTS Inhibitors of AmpC Beta-Lactamase (assay with detergent)). Conditions: AmpC hydrolysis of nitrocefin, absorbance 480 nm, 0.01% Triton; series mostly up to 114 µM.
Sequence of UniProt P00811 (P00811 whole entry, looked up): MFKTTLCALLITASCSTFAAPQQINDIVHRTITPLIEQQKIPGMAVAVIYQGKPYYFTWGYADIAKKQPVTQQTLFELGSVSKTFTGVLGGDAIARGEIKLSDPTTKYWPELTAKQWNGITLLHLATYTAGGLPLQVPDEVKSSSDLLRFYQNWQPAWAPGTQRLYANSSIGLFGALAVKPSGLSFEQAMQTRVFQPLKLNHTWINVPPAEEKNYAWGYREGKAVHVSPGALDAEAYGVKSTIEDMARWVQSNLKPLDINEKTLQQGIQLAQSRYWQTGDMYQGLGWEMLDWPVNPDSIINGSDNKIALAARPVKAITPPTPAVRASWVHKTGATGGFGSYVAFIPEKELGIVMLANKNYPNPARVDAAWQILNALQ
Method in brief: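 20 mM phosphate pH 7.0 + 0.01% (detergent screen) or 0.0001% Triton X-100; 5.3 nM AmpC reagent; cpd preinc 15 min RT; nitrocefin (800 uM stock) to start; A480 q20 s × 4 min; Activity was normalised to no-enzyme and no-compound control wells.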
For Oc1[nH]c2ccccc2c1N=Nc1ccccc1F, the Potency was “inactive”. For Cc1ccc(C(=O)OCC(=O)c2c[nH]c3ccccc23)cc1, the Potency was “inactive”. C[C@@H]1O[C@@H](O[C@@H]2C=C3CCC4C(CC[C@]5(C)[C@@H](c6ccc(=O)oc6)CC[C@]45O)[C@@]3(C)CC2)[C@H](O)[C@H](O)[C@H]1O (some centres not stated) was tested, and the Potency was inconclusive [inhibitor, full curve, poor fit]. In the case of CCc1ccc(NC(=O)Cn2cnc([N+](=O)[O-])c2)cc1, the Potency is reported as inconclusive [inhibitor, full curve, poor fit]. In the case of CCOCCCN=Cc1c(O)n(Cc2ccccc2)c(=O)[nH]c1=O, the Potency is reported as inconclusive [inhibitor, partial curve, poor fit]. For CCOC(=O)c1ccccc1NC(=O)CSc1cccc[n+]1[O-], the Potency was inconclusive [inhibitor, full curve]. For CNC(=S)N/N=C/c1c(C)nn(-c2cccc(Cl)c2)c1Cl, the Potency was inconclusive [inhibitor, full curve, poor fit]. COCCN(CCOC)S(=O)(=O)c1ccc(C(=O)NC2CCN(Cc3ccccc3)CC2)cc1 was tested, and the Potency was inconclusive [inhibitor, full curve, poor fit]. For O=[n+]1c2c(n([O-])c3c1CCCC3)CCCCC2, the Potency was inconclusive [inhibitor, full curve, poor fit]. In the case of COC(=O)c1c(-c2ccccc2)c[nH]c1C, the Potency is reported as “inactive”. In the case of COc1ccccc1OCC(=O)Nc1cc(S(=O)(=O)N2CCCCC2)ccc1N1CCCCC1, the Potency is reported as “inactive”. With CC(CCc1ccccc1)NCc1ccncc1 (configuration not stated) the Potency was inconclusive [inhibitor, full curve, poor fit]. In the case of O=C(Nc1ccccc1C(=O)NC(Cc1ccccc1)C(=O)O)c1ccco1 (configuration not stated), the Potency is reported as inconclusive [inhibitor, single point]. For CN(C)c1ccc(Nc2ccc([N+](=O)[O-])cn2)cc1, the Potency was inconclusive [inhibitor, full curve, poor fit]. In the case of O=C(CN1C(=O)c2cccc3cccc(c23)C1=O)N1CCCCCC1, the Potency is reported as inconclusive [inhibitor, partial curve, poor fit]. With Cc1ccc(C)c(NC(=O)C2CCCN2C(=O)OC(C)(C)C)c1 (configuration not stated) the Potency was inconclusive [inhibitor, partial curve]. For COc1ccc(-c2oc3ccc(-c4cc(OC)c(OC)c(OC)c4)cc3c2C#Cc2ccsc2)cc1, the Potency was “inactive”. In the case of COc1ccc(F)c(CN2CCN(CCc3ccccc3)C(CCO)C2)c1 (configuration not stated), the Potency is reported as “inactive”. With Cc1ccc(C)c(NC(=O)COC(=O)c2cccc(S(=O)(=O)N3CCCCC3)c2)c1 the Potency was inconclusive [inhibitor, full curve, poor fit]. For CSc1nnc(Cc2ccc3c(c2)OCO3)o1, the Potency was inconclusive [inhibitor, full curve, poor fit]. With Cc1nn(Cc2ccccc2)c2sc(C(=O)N3CCN(Cc4ccc5c(c4)OCO5)CC3)cc12 the Potency was “inactive”. CCOC(=O)c1cc(-c2ccc(F)cc2)n(CCC(=O)Nc2cc(OC)cc(OC)c2)c1C was tested, and the Potency was “inactive”. With CNC(=O)c1c(NC(=O)CCS(=O)(=O)c2ccc(C)cc2)sc2c1CCN(C(=O)OC)C2 the Potency was inconclusive [inhibitor, full curve]. For Cc1ccc(NC(=O)Cn2nnc(C(=O)NCc3ccco3)c2N)cc1, the Potency was “inactive”. For COc1ccc(OCC(=O)Nc2cc(NC(=O)c3ccco3)ccc2OC)cc1, the Potency was “inactive”. CCOc1ccc(N2CC(C(=O)NCC(=O)Nc3ccc(F)c(F)c3F)CC2=O)cc1 (configuration not stated) was tested, and the Potency was inconclusive [inhibitor, full curve, poor fit]. In the case of CCN(CC)C(=O)COC(=O)C1=NN(c2cc(C)ccc2C)C(=O)CC1, the Potency is reported as inconclusive [inhibitor, full curve]. In the case of c1ccc(Nc2ccc(Nc3ccccc3)cc2)cc1, the Potency is reported as “inactive”. Cc1nn2c(NC(C)C)c3c(nc2c1-c1ccccc1)CCC3 was tested, and the Potency was “inactive”. N#Cc1c(NC(=O)CSc2nnnn2C2CCCCC2)sc2c1CCCC2 was tested, and the Potency was inconclusive [inhibitor, full curve]. O=C1C2C3C=CC(C3)C2C(=O)N1c1cccc(-c2nc3ccccc3o2)c1 (configuration not stated) was tested, and the Potency was inconclusive [inhibitor, single point]. COCCCn1c(SCC(=O)Nc2ccc(OC)cc2)nc2c(sc3ccccc32)c1=O was tested, and the Potency was “inactive”. In the case of CCOC(=O)C1CCCCN1Cc1cccc(OC)c1OC (configuration not stated), the Potency is reported as “inactive”. For O=C(N/N=C/c1ccc(-c2ccccc2[N+](=O)[O-])o1)c1cccnc1, the Potency was “inactive”. CCOC(=O)c1cccc(NC(=O)CSc2nnc(COc3ccccc3)n2CC)c1 was tested, and the Potency was inconclusive [inhibitor, full curve]. In the case of COc1ccccc1N=c1oc2cc(O)ccc2cc1C(N)=O, the Potency is reported as “inactive”. For Cc1ccccc1C(=O)O/N=C(\N)Cc1cccs1, the Potency was “inactive”. With COc1ccc(/C=N/NC(=O)c2nn(-c3ccc(Cl)cc3)c(=O)c3c(N)scc23)cc1 the Potency was “inactive”. In the case of O=C(Nc1ccccc1)C1=C[C@@H](C2CC2)C[C@@H](OCc2ccc(CO)cc2)O1, the Potency is reported as “inactive”. For Cc1ccc2nc(-c3ccc(SCC(=O)Nc4cc(C)on4)nc3)[nH]c2c1, the Potency was inconclusive [inhibitor, full curve, poor fit]. In the case of CCOc1ccccc1C(=O)N1CCc2cc(OC)c(OC)cc2C1COc1ccc(OC)cc1 (configuration not stated), the Potency is reported as “inactive”. O=C1c2oc3ccccc3c(=O)c2C(c2cccc(Br)c2)N1Cc1ccco1 (configuration not stated) was tested, and the Potency was “inactive”. In the case of O=C(Cn1cnc2c(nnn2Cc2ccc(Cl)cc2)c1=O)NCc1ccco1, the Potency is reported as “inactive”. With CC(Sc1nnc(COc2ccc(Cl)cc2)n1Cc1ccco1)C(=O)N1CCNC1=O (configuration not stated) the Potency was inconclusive [inhibitor, single point]. With CCN1CCN(Cc2c(OC)ccc3ccccc23)CC1 the Potency was inconclusive [inhibitor, partial curve]. For CN(C)c1ccc(CN2CCCCC2)cc1, the Potency was inconclusive [inhibitor, full curve, poor fit]. With O=C(O)c1ccc(NCc2cccc(Br)c2)cc1 the Potency was inconclusive [inhibitor, full curve]. CN(CC(=O)Nc1c(Cl)cccc1Cl)C(=O)Cc1ccc2c(c1)CCC2 was tested, and the Potency was inconclusive [inhibitor, partial curve]. COc1cc2cc(CN(Cc3cccs3)C(=S)Nc3cccc(C)c3)c(=O)[nH]c2cc1OC was tested, and the Potency was inconclusive [inhibitor, full curve, poor fit]. COc1c(O)ccc2cnn(-c3ccccc3C)c(=O)c12 was tested, and the Potency was inconclusive [inhibitor, partial curve, poor fit]. With CCS(=O)(=O)n1nc(NCc2cccc(OC)c2)nc1NCc1cccc(OC)c1 the Potency was inconclusive [inhibitor, full curve]. With Oc1ccc(Br)cc1CNc1cccc2cccnc12 the Potency was inconclusive [inhibitor, partial curve, poor fit]. COc1ccc(C(=O)NCC(=O)N2CCN(c3ccc(F)cc3)CC2)cc1 was tested, and the Potency was “inactive”. In the case of Cc1ccc(C(=O)c2no[n+]([O-])c2C(=O)c2ccc(C)cc2)cc1, the Potency is reported as inconclusive [inhibitor, full curve, poor fit]. O=C(CSc1ncnc2c1oc1ccccc12)OCc1ccccc1 was tested, and the Potency was inconclusive [inhibitor, full curve, poor fit]. In the case of c1ccc(N2CCN(c3nc4ccccc4[nH]3)CC2)nc1, the Potency is reported as inconclusive [inhibitor, partial curve, poor fit]. In the case of COc1ccccc1N(C)S(=O)(=O)c1ccc(C(=O)NCC2CCCCC2)cc1, the Potency is reported as “inactive”. c1ccc(Cn2c(SCc3nc4ccccc4s3)nnc2-c2ccco2)cc1 was tested, and the Potency was “inactive”. In the case of CC1CCC/C(=N/NC(=O)c2ccccc2-n2cccc2)C1 (configuration not stated), the Potency is reported as inconclusive [inhibitor, full curve, poor fit]. For Cn1nnnc1Sc1ncnc2scc(-c3cc4ccccc4o3)c12, the Potency was “inactive”. In the case of Cc1ccc(-c2nc(CNC(=O)Nc3ccccc3)c(C)o2)cc1, the Potency is reported as “inactive”. In the case of O=C(Nc1ccc2c(c1)OCO2)N1CCN(C(=O)C2CCCO2)CC1 (configuration not stated), the Potency is reported as inconclusive [inhibitor, partial curve]. For O=S1(=O)C=C(Oc2ccc3ccccc3c2)c2ccccc21, the Potency was “inactive”. For COC(=O)c1c(-c2c(Cl)cccc2Cl)noc1NC(=O)NN1CCOCC1, the Potency was inconclusive [inhibitor, full curve, poor fit]. In the case of CC(CN1CCOCC1)OC(=O)/C=C/c1ccccc1 (configuration not stated), the Potency is reported as “inactive”. For COc1ccc(C(=O)NNC(=O)CSc2nnc(COc3ccc4ccccc4c3)n2C)cc1, the Potency was “inactive”. COc1ccc(NC(=O)CSc2nccn2C)c([N+](=O)[O-])c1 was tested, and the Potency was inconclusive [inhibitor, single point]. For O=C(Nc1ccccc1F)c1ccc(S(=O)(=O)NCC2CCCO2)cc1 (configuration not stated), the Potency was inconclusive [inhibitor, full curve, poor fit]. COc1ccc(N(C(=O)c2cnccn2)C(C(=O)NCc2ccccc2)c2ccc(O)cc2)cc1 (configuration not stated) was tested, and the Potency was “inactive”. For CCN1CCN(c2nc(-c3ccccc3)c3ccccc3n2)CC1, the Potency was inconclusive [inhibitor, full curve, poor fit]. With COc1ccc(C(=O)Nn2cnnc2)c(OC)c1 the Potency was inconclusive [inhibitor, full curve, poor fit]. With Cc1nc2ccc(Br)cn2c1C(=O)N/N=C\c1ccc(C(C)C)cc1 the Potency was inconclusive [inhibitor, full curve, poor fit].
Note: nearly all actives have a fitted effect of over 25% in size.
Potency is the fitted concentration of half-maximal effect; tags give direction and shape of the fitted curve.
